Reference: a compilation of properties of binary mixtures (doi:10.1016/j.molliq.2018.01.167)
Some of these densities may be calculated back from excess volumes.

Assay: xn = mol fraction of the nth substance listed
Conditions: 100 kPa

CCCC[n+]1ccn(C)c1.F[B-](F)(F)F + OCCO
mass density [kg/m3]
Conditions | 283.15 K | 293.15 K | 303.15 K | 313.15 K
x1 = 0.04 | 1130.7 | 1123.5 | 1116.3 | –
x1 = 0.0899 | 1141.3 | – | – | –
x1 = 0.1905 | 1157.6 | – | 1142.4 | –
x1 = 0.2865 | 1168.8 | 1161.1 | 1153.4 | 1145.8
x1 = 0.3767 | – | 1169.3 | 1161.6 | 1154
x1 = 0.4983 | 1186.1 | 1178.5 | 1170.9 | 1163.3
x1 = 0.5814 | – | 1184 | 1176.5 | 1169
x1 = 0.6945 | – | 1190.7 | 1183.3 | 1176
x1 = 0.7958 | 1203.1 | – | – | 1181.4
x1 = 0.8951 | 1207.7 | 1200.6 | 1193.4 | 1186.2
x1 = 0.9577 | 1210.5 | – | 1196.2 | 1189.1

CC[n+]1ccn(C)c1.F[B-](F)(F)F + OCCO
mass density [kg/m3]
Conditions | 283.15 K | 293.15 K | 303.15 K | 313.15 K
x1 = 0.0483 | 1139.9 | 1132.7 | 1125.4 | 1118.1
x1 = 0.0765 | 1150 | – | 1135.3 | 1127.9
x1 = 0.178 | 1180 | – | – | –
x1 = 0.2747 | – | 1194.4 | 1186.5 | –
x1 = 0.3687 | 1220.2 | 1212.2 | 1204.2 | 1196.3
x1 = 0.4907 | 1238.9 | 1230.9 | 1222.9 | 1215.1
x1 = 0.5903 | 1251.6 | 1243.6 | 1235.7 | 1227.9
x1 = 0.6644 | 1259.9 | 1251.9 | 1244.1 | 1236.3
x1 = 0.7591 | – | 1261.8 | 1254 | 1246.4
x1 = 0.8666 | 1279.7 | 1272 | 1264.3 | 1256.7
x1 = 0.9378 | 1285.9 | 1278.2 | 1270.6 | 1263
